Measurements: PubChem BioAssay AID1508649 (National Center for Advancing Translational Sciences (NCATS), 2021)
The campaign covered roughly 43,000 compounds. About 830 (1.9%) were called active. The shares of active, inactive and inconclusive entries below differ from those in the screen. Rule for the calls: active = clear falling dose curves in both reporters; inconclusive = both reporters move, but less clearly or upward; inactive = either reporter flat; the % is the NLuc reporter signal. No potency is given beside an inconclusive call; the fits are too rough.

Assay: Cell-based coincidence reporter assay to measure PMP22 gene transcription in S16 Pmp22-F2sN cells - Primary screen
Conditions: S16 Pmp22-F2sN Schwann cells (luciferase reporters placed in the Pmp22 gene), FLuc/NLuc coincidence luminescence, 24 h; measured here: NLuc reporter readout, at 57.5 µM (top of the series)
Summary of the method: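 Rat S16 Pmp22-F2sN cells, 500-1,000/well in phenol red-free DMEM + 10% FBS, compound-treated 24 h (37C, 5% CO2). Luminescence: FLuc read, Stop&Glo added, NLuc read.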
Potency is the fitted concentration of half-maximal effect; tags give direction and shape of the fitted curve.

| SMILES | Potency |
| --- | --- |
| Cc1ccccc1CNC(=O)c1oc2c(c1C)-c1nn(Cc3ccc(Cl)cc3)cc1CC2 | inconclusive [phenotype inactive, single point] |
| Cc1cc(C)cc(NC(=O)CSc2nc3c([nH]c4ccccc43)c(=O)n2-c2ccc(F)cc2)c1 | inconclusive [phenotype inactive, partial curve] |
| Fc1ccc(Nc2nc(SCc3cccc(Cl)c3)nc3ccccc23)cc1 | inconclusive [phenotype inactive, single point] |
| COc1ccc(N(CC(=O)N2CCc3ccccc3C2)S(=O)(=O)c2ccc(C)cc2)cc1Cl | inconclusive [phenotype inactive, single point] |
| CSc1nc(-c2ccccc2Cl)nc2c1Cc1c(CO)cnc(C)c1O2 | inconclusive [phenotype inactive, partial curve] |
| N#CC1=C2SCN(C3CCCCC3)CN2C(=O)CC1c1ccc(Br)cc1 (stereo not given) | inactive |
| CN(C)CCNC(=O)C1CCN(c2ncnc3c2nc2n3CCCCC2)CC1 | inactive |
| O=C1CSC2(C(=O)N(Cc3ccccc3F)c3ccccc32)N1c1cccc(C(F)(F)F)c1 (stereo not given) | inconclusive [phenotype inactive, single point] |
| O=C(NCCc1ccccc1)c1ccc2nc(N3CCCCC3)sc2c1 | inactive |
| COc1cccc(CNC(=O)Cn2ccc3cc(S(=O)(=O)N4CCCC4)ccc32)c1OC | inactive |
| COc1ccccc1C(=O)Nc1cccc(C(=O)OCc2cc(=O)n3nc(C4CC4)sc3n2)c1 | inactive |
| Cc1nc(-c2cccc(F)c2)sc1CCNC(=O)c1c(F)cccc1Cl | inconclusive [phenotype inactive, single point] |
| COc1ccc(S(=O)(=O)c2c(SC)nn(CC(=O)Nc3ccc(C)c(Cl)c3)c2N)cc1 | inconclusive [phenotype inactive, single point] |
| O=C(Nc1cccc(C(F)(F)F)c1)c1cc(-c2ccc(Cl)cc2)on1 | inactive |
| Cc1ccc(NC(=O)CN2c3ccccc3S(=O)(=O)c3ccccc32)cc1F | inactive |
| CCOc1cc(CNC(=O)c2ccc3c(c2)nc2n3CCCCC2)ccc1OC | inactive |
| O=C(NCc1ccc(F)cc1)C1CCN(S(=O)(=O)c2ccc3c(c2)CCCN3C(=O)C2CCC2)CC1 | inconclusive [phenotype inactive, single point] |
| Cc1ccc2ncc(S(=O)(=O)c3ccccc3)c(N3CCCCC3C)c2c1 (stereo not given) | inconclusive [phenotype inactive, single point] |
| COc1cc(NC(=O)Cn2c(=O)n(CC(=O)NCCc3ccc(OC)c(OC)c3)c(=O)c3sccc32)cc(OC)c1 | inconclusive [phenotype inactive, partial curve, poor fit] |
| CCOc1ccc(CCNC(=O)c2c(C)oc3ncn(CC(C)C)c(=O)c23)cc1 | active: 20 µM |

| SMILES | Potency |
| --- | --- |
| Cc1ccccc1C(=O)Nc1ccccc1OCc1cc(=O)n2ccccc2n1 | inactive |
| Cc1ccc(Cn2c(C(=O)O)c(CNC3CCCCC3)c3ccc(C)cc32)cc1 | inactive |
| CCOc1ccc(N(C)S(=O)(=O)c2cc(-c3cc(C)no3)ccc2OC)cc1 | inconclusive [phenotype inactive, single point] |
| Cc1ccc2oc(-c3ccc(Cl)cc3)c(O)c(=O)c2c1 | inconclusive [phenotype inactive, single point] |
| CCCN(C(=O)Cc1nc(-c2ccc(OC)cc2)no1)c1ccccc1C | inactive |
| CC(C)c1ccc(Nc2c(-c3ccccn3)nc3ccccn23)cc1 | active: 14.2 µM |
| CCc1ccc(C(=O)CC2(O)C(=O)N(CCc3ccccc3)c3ccc(Cl)cc32)cc1 (stereo not given) | inconclusive [phenotype inactive, partial curve] |
| COc1ccc(N(C(=O)Cn2nnc3ccccc32)C(C(=O)NCc2ccccc2)c2ccc(F)cc2)cc1 (stereo not given) | inactive |
| Cc1cc(C)c(Cn2c(=O)n(CCCC(=O)NCc3ccc4c(c3)OCO4)c(=O)c3sccc32)c(C)c1 | inconclusive [phenotype inactive, single point] |
| Cn1c(=O)c2c(-c3ccc(Cl)cc3)n(CCc3ccccc3)cc2n(C)c1=O | inconclusive [phenotype inactive, single point] |
| COc1ccc(NC(=O)CCn2cnc3onc(-c4ccc(F)cc4)c3c2=O)cc1OC | active: 11.3 µM |
| FC(F)(F)c1cccc(Nc2c3c(nc4ccc(Cl)cc24)CCC3)c1 | inconclusive [phenotype inactive, single point] |
| Cc1cccc(-c2nc3c(cnn3-c3ccccc3)c(=O)n2-c2ccc(Cl)cc2)c1 | inactive |
| Cn1c(=O)n(C)c2cc(N3CCOCC3)c(NS(=O)(=O)c3cccc(C#N)c3)cc21 | inactive |
| COc1ccc(-n2c(SCC(=O)NCc3ccc(F)cc3)nc3c([nH]c4ccccc43)c2=O)cc1 | inconclusive [phenotype inactive, partial curve] |
| CCC(=O)N1CCc2cc(Br)cc(S(=O)(=O)N3CCCC(C(=O)Nc4ccc(C)c(F)c4)C3)c21 (stereo not given) | inconclusive [phenotype inactive, single point] |
| Cc1ccc(NC(=O)Cn2c(=O)n(Cc3nc(-c4ccccc4)no3)c(=O)c3ccccc32)c(C)c1 | inactive |
| CCCCNc1nc2c(S(=O)(=O)c3ccc(Br)cc3)nnn2c2ccsc12 | inconclusive [phenotype inactive, partial curve, poor fit] |
| COc1ccc(S(=O)(=O)N2CCC(c3nc4ccccc4s3)CC2)cc1OC | inconclusive [phenotype inactive, partial curve, poor fit] |
| COCCN(CCOC)S(=O)(=O)c1ccc(C(=O)Nc2sc3c(c2C(N)=O)CCCC3)cc1 | inconclusive [phenotype inactive, single point] |

| SMILES | Potency |
| --- | --- |
| CCOc1ccccc1-c1noc(CSc2nnc(-c3ccccc3)n2-c2ccc(OC)cc2)n1 | inconclusive [phenotype inactive, single point] |
| Cc1nc(-c2ccc(Cl)cc2)sc1CCNC(=O)C(=O)Nc1ccc2c(c1)OCO2 | inconclusive [phenotype inactive, single point] |
| Cc1ccc(-n2ncc3c(NCCCn4ccnc4)ncnc32)cc1C | inconclusive [phenotype inactive, single point] |
| COc1ccc(N2CCN(CCCNC(=O)c3c(C)nn(-c4ccc(F)cc4)c3-n3cccc3)CC2)cc1 | inconclusive [phenotype inactive, partial curve] |
| CCC(=O)N1CCc2cc(Br)cc(S(=O)(=O)N3CCCC(C(=O)NCc4ccc(C)cc4)C3)c21 (stereo not given) | inconclusive [phenotype inactive, single point] |
| Cc1ccc2nc(COc3ccccc3NC(=O)Nc3ccc(F)c(Cl)c3)cc(=O)n2c1 | inconclusive [phenotype inactive, single point] |
| Cc1ccc(C(=O)CSc2nc(C)cc(C)c2C(=O)Nc2cccc(C)c2)cc1 | inactive |
| COc1ccc(OC)c(CCNC(=O)c2nc(-c3ccc(Cl)cc3)n3c2CCCCC3)c1 | inconclusive [phenotype inactive, partial curve] |
| COc1ccc(OC)c(CNC(=O)c2c(C)oc3ncn(CC(C)C)c(=O)c23)c1 | active: 10 µM |
| CCC1CCc2nc3sc(C(=O)Nc4cccc(F)c4)c(N)c3cc2C1 (stereo not given) | inconclusive [phenotype inactive, full curve, poor fit] |
| CCC(Oc1ccccc1)C(=O)Nc1cccc(OCc2cc(=O)n3cccc(C)c3n2)c1 (stereo not given) | inconclusive [phenotype inactive, partial curve, poor fit] |
| CCOCCc1nnc(NC(=O)C(=O)c2cc(C)n(-c3ccc(C)c(C)c3)c2C)s1 | inconclusive [phenotype inactive, single point] |
| COc1cccc(CNC(=O)c2c(C)nn(-c3ccc(F)cc3)c2-n2cccc2)c1 | inconclusive [phenotype inactive, single point] |
| Cc1ccc(NC(=O)Nc2nnc(SCC(=O)N(C(C)C)C(C)C)s2)cc1 | inconclusive [phenotype inactive, single point] |
| COc1ccc(OC)c(CCNC(=O)c2c(C)oc3ncn(CC(C)C)c(=O)c23)c1 | inconclusive [phenotype inactive, single point] |
| CCC(CC)C(=O)N1c2ccccc2C(C)(c2ccccc2)CC1(C)C (stereo not given) | inconclusive [phenotype inactive, single point] |
| CCCCc1ccc(-n2nc3ccc(NC(=O)c4cc5ccccc5o4)cc3n2)cc1 | inconclusive [phenotype inactive, partial curve] |
| COc1ccc(C(=O)NCCc2csc(-c3ccc(Cl)cc3)n2)cc1 | inconclusive [phenotype inactive, single point] |
| Cc1ccc(S(=O)(=O)N2CCCc3cc(NS(=O)(=O)c4ccc(F)cc4)ccc32)cc1 | inconclusive [phenotype inactive, single point] |
| CCc1ccc(CNC(=O)Cn2nc(-c3ccc(Cl)cc3)ccc2=O)cc1 | inconclusive [phenotype inactive, single point] |
